Consider 57 compounds from paper PMC4336329 (PLoS ONE, 2015).

Hit rate of the full screen: of about 310,000 compounds, about 14,000 (4.5%) showed an effect of 50% or more. The effect is printed as a negative number. This is one part of the list.
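Note: peak tail current of the secondary pulse compared with the same well before compound.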

Chain of human ether-à-go-go-related gene (hERG) potassium channel (Q12809 whole entry, looked up): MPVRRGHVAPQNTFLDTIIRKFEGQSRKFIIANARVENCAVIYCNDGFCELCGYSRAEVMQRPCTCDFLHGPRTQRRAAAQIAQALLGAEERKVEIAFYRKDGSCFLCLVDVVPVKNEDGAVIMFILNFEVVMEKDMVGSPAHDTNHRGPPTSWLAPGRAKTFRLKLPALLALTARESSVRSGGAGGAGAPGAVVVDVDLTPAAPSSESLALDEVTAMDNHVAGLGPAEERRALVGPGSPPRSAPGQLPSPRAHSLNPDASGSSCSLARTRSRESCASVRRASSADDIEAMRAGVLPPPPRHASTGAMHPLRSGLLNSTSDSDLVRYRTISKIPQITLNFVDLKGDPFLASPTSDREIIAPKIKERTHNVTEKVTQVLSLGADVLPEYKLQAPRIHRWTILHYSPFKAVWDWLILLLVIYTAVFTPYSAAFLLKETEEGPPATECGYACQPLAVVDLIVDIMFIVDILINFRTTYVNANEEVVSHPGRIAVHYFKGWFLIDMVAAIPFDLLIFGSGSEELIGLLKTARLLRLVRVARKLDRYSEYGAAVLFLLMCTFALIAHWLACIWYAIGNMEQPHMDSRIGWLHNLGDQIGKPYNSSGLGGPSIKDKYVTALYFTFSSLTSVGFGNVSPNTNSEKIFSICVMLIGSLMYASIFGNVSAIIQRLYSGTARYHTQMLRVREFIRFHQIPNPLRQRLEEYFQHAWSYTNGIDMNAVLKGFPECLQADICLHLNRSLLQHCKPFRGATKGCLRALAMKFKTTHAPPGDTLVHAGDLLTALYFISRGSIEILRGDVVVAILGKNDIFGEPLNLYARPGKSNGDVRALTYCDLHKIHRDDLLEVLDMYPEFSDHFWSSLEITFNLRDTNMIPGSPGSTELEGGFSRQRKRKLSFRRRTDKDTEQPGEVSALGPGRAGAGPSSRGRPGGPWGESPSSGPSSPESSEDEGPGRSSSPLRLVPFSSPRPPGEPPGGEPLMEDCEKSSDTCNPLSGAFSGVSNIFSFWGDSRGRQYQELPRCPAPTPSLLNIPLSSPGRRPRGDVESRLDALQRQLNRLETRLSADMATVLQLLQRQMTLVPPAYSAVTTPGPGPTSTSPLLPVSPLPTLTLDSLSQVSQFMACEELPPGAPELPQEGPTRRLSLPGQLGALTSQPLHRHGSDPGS

The experiment has as its target human ether-à-go-go-related gene (hERG) potassium channel (human, UniProt Q12809). The experiment in a line: primary screen, population patch clamp on CHO cells stably expressing hERG.
Consider `Cc1ccc(NC(=O)CN2CCc3ccccc3C2)cc1S(=O)(=O)N(C)C`, for which the “hERG current change (%, negative = inhibition) at 10uM” value is -1.32%. For `Cc1ccc(S(=O)(=O)NC(C)C(c2cccs2)N2CCOCC2)cc1` (stereo not drawn) the value was -5.53%. For `O=S(=O)(c1cccc(C(F)(F)F)c1)N1CCCC1c1cccnc1` (stereo not drawn) the value was -12.7%. Then `N#C/C(=C\c1ccc(-c2ccc(F)cc2)o1)C(=O)Nc1nc(-c2cccs2)cs1`, with 9.36%; and `COC(=O)c1cc(C#N)c(OC)nc1C`, with 32.1%. In the case of `COc1cccc(-c2nnc(SCc3ccccn3)n2C)c1`, the “hERG current change (%, negative = inhibition) at 10uM” value is given as -6.99%.

On to `CCNC(=O)CC1C(=O)N(c2ccc(C)cc2)C(=O)N1CCc1sccc1C` (stereo not drawn), for which the “hERG current change (%, negative = inhibition) at 10uM” value was -23.4%. For the compound `CCCCNC(=O)c1cc([N+](=O)[O-])[nH]n1`, the “hERG current change (%, negative = inhibition) at 10uM” value is 19.1%. For `Cc1ccc(NC(=O)c2onc(C)c2Cl)cc1` the value was 1.73%; for `CN1CCN(S(=O)(=O)c2ccc(NC(=S)NC(=O)C3CCC3)cc2)CC1`, -17.7%.

As for `CCC(C)NC(=O)N[C@@H](Cc1ccccc1)C(=O)O` (stereo partly drawn), the “hERG current change (%, negative = inhibition) at 10uM” value is -1.98%.

`COc1ccccc1/C=C/C1=NC(=C\C=C/c2ccccc2)/C(=O)O1`: the “hERG current change (%, negative = inhibition) at 10uM” value was 3.98%. Then `CCCCCCc1cc2cc(C(=O)NC)c(=N)oc2cc1O`, with -7.38%; and `Cc1cc(C)c[n+](C(C)C(=O)c2ccc(Cl)cc2)c1.[Br-]` (stereo not drawn), with 4.97%; and `COc1ccc(NC(=O)C(CCCCNC(=O)OC(C)(C)C)NC(=O)OCc2ccccc2)cc1` (stereo not drawn), with 21.6%. For `O=C(COC(=O)c1cc(S(=O)(=O)N2CCOCC2)ccc1Cl)Nc1ccc2c(c1)OCO2` the value was -11%; for `CCN1CCc2c(sc(NC(=O)c3ccc(C(=O)c4ccccc4)cc3)c2C(N)=O)C1.Cl`, -55.4%; for `O=C(/C=C/c1ccco1)Nc1nnc(-c2ccco2)s1`, 37.5%. For `CCOC(=O)/C(C#N)=C/c1cn(CCC(=O)O)nc1-c1cccc(Cl)c1` the value was 25.3%; for `N#C/C(=C/Nc1ccccc1C(=O)O)C(N)=O`, 3.85%; for `Clc1ccc(-c2nc3cnccn3c2Nc2ccc3c(c2)OCO3)cc1`, -18.4%. With `O=C(O)/C=C/C(=O)NCc1csc2ccccc12`, the “hERG current change (%, negative = inhibition) at 10uM” value is recorded as 10.3%.

As to `CCOc1cccc(C2NCc3ccccc3-n3cccc32)c1O.Cl` (stereo not drawn), the “hERG current change (%, negative = inhibition) at 10uM” value is on record as -22.4%. Then `O=C1N(Cc2cccc(Cl)c2)C[C@@H]2C[C@@H](c3cccn3-c3ccccn3)N3CCC[C@@]123`, with -73.5%. For `CC(C)CCNc1ncnc2c1cnn2Cc1ccccc1Cl` the value was -27.9%; for `CC1(c2ccccc2)CC2CC(c3ccccc3)N1O2` (stereo not drawn), 9.74%; for `Cc1sc(-c2ccncc2)nc1OC(=O)c1ccc(Cl)cc1`, -15.7%.

On to `CSc1nc(NC(C)(C)C)nc(Oc2ccc(=O)[nH]n2)n1`, for which the “hERG current change (%, negative = inhibition) at 10uM” value was 4.68%.

On to `Cc1ccc(NC(=O)c2ccc3c(c2)C(=O)N(c2cc(C)ccc2C)C3=O)nc1`, for which the “hERG current change (%, negative = inhibition) at 10uM” value is given as 19%.

`Cc1ccc(NC2=CC(=O)CC(C)(C)C2)cc1Cl`: the “hERG current change (%, negative = inhibition) at 10uM” value turned out to be 2.27%.

For the compound `CC(Cc1cnccn1)NCc1c(C(=O)N2CCCCCCC2)nc2ccc(Cl)cn12` (stereo not drawn), the “hERG current change (%, negative = inhibition) at 10uM” value is given as -12.8%. For `Cc1nnsc1Sc1ccccc1C(=O)O` the value was 8.3%.

As to `CCOc1ccc(CN2CCNC(=O)C2CC(=O)NC2CCOCC2)cc1` (stereo not drawn), the “hERG current change (%, negative = inhibition) at 10uM” value is -44.7%.

Turning to `Cc1sc(NC(=O)c2ccco2)c(C(c2cccnc2)N2CCN(c3ccc(F)cc3)CC2)c1C` (stereo not drawn), the “hERG current change (%, negative = inhibition) at 10uM” value turned out to be 1.92%.

For the compound `CCC(=O)N/N=C(\C)CC(=O)Nc1ccc(F)cc1`, the “hERG current change (%, negative = inhibition) at 10uM” value turned out to be 0.39%. As for `COc1cc2c(cc1OC)C(c1cccs1)N(C(=O)c1cccc(S(=O)(=O)N(C)C)c1)CC2` (stereo not drawn), the “hERG current change (%, negative = inhibition) at 10uM” value is listed as -70.7%. For `O=C(NCCOCCOCCNC(=O)c1cccnc1)c1cccnc1` the value was 1.55%. For `CCCc1cc(=O)oc2cc(OCC(=O)N3CCc4ccccc43)ccc12` the value was 1.89%; for `O=C(O)C(=O)O.c1ccc(CCN(Cc2ccccc2)C2CCN(C3CCCC3)CC2)cc1`, -77%. With `CCOc1ccc(OCc2cccc(C(=O)N(CC)CC)c2)cc1`, the “hERG current change (%, negative = inhibition) at 10uM” value was -67.6%. For `COC(=O)/C(C#N)=C/c1c(N2CCCCCC2)nc2ccccn2c1=O`, the “hERG current change (%, negative = inhibition) at 10uM” value was -10.8%.

Take `CC1=CC(=O)C=CC1(C)C(Cl)Cl` (stereo not drawn): the “hERG current change (%, negative = inhibition) at 10uM” value is recorded as -3.69%.

As for `COc1cccc(NC(=O)N2CCOCC2)c1`, the “hERG current change (%, negative = inhibition) at 10uM” value is reported as -14.8%. Consider `COc1ccc(-n2nc(C(=O)Nc3ccc4c(c3)OCO4)c3ccccc3c2=O)c(OC)c1`, for which the “hERG current change (%, negative = inhibition) at 10uM” value is given as 13%. For `Cc1ccc(NC(=O)c2cccc(-n3cnnn3)c2)cc1Cl` the value was -11.8%. Then `CC(=O)Oc1ccc(S(=O)(=O)c2ccc(OC(C)=O)cc2)cc1`, with 16.4%; and `COc1ccc2[nH]cc(C(=O)CN(C)CCc3ccc(OC)c(OC)c3)c2c1`, with -70.3%; and `Cc1cnc(C(=O)OCC(=O)Nc2ccc(C)c(S(=O)(=O)N3CCCCC3)c2)cn1`, with -8.9%. In the case of `O=C(NCc1ccco1)c1ccc(Cn2cc([N+](=O)[O-])cn2)o1`, the “hERG current change (%, negative = inhibition) at 10uM” value was -10.3%. For the compound `O=C(CSc1nnc(-c2ccccc2)n1Cc1ccccc1)N1CCOCC1`, the “hERG current change (%, negative = inhibition) at 10uM” value was -2.09%. For `O=C1NCCC/C1=N/Nc1ccc(F)cc1`, the “hERG current change (%, negative = inhibition) at 10uM” value came to 3.33%. Then `CCCn1c(-c2cccs2)nc2c1c(=O)[nH]c(=O)n2Cc1ccccc1`, with 12.1%; and `Cc1nc(-c2cccc(NS(=O)(=O)c3ccc4ccccc4c3)c2)cs1`, with 9.1%.

With `Cc1ccn(CCC(=O)Nc2ccc3c(c2)OCO3)n1`, the “hERG current change (%, negative = inhibition) at 10uM” value is 17.6%. For `Cc1ccc(NC(=O)CNC(c2ccccc2)c2ccccc2)c(F)c1` the value was 6.43%; for `Cc1ccc(S(=O)(=O)N(CC(=O)NCCSCc2ccco2)c2cc(C)ccc2C)cc1`, -9.25%; for `COc1ccccc1Nc1ncccc1C(=O)O`, 9.41%.
